According to PMC10668032:
The other results are listed elsewhere or left out. At the low end of the ranking, values are background and their order means little.

biological target: SIX1 homeodomain (reference allele) (UniProt Q15475); experiment: universal protein binding microarray; details: Universal all-10-mer PBM (8x60K, AMADID 030236), 300 nM GST-tagged protein, Alexa Fluor 488 anti-GST; buffer, salt, pH and temperature not stated; high values mean tight binding; most listed sequences are background and not binding sites; double strand, one strand shown

| Sequence | binding signal |
| --- | --- |
| CTGCCCGA | -0.00468 E-score |
| GTCTATAA | 0.0805 E-score |
| CTAGATTA | 0.0323 E-score |
| ACCCCGCG | 0.264 E-score |
| AAGCGCTC | -0.0755 E-score |
| CATCGTGA | 0.0525 E-score |
| AGATGTAG | 0.0572 E-score |
| AACGCATA | 0.203 E-score |
| ACTCCCCC | -0.086 E-score |
| AGCTGTAA | -0.26 E-score |
| TTGGAAAA | -0.0998 E-score |
| GACCAGAC | -0.312 E-score |
| AAATGTCG | -0.205 E-score |
| AACTTGTG | 0.0298 E-score |
| AATAACCA | -0.121 E-score |
| TAAGACGA | 0.0197 E-score |
| CGAGGTGC | -0.0819 E-score |
| GGGTACTA | 0.126 E-score |
| GTGTCTGA | 0.0497 E-score |
| CCTGGATA | 0.313 E-score |
| CGCGTCTA | 0.0662 E-score |

| Sequence | binding signal |
| --- | --- |
| AGCTTTGG | -0.137 E-score |
| GCGCATCA | -0.0358 E-score |
| CCGTGCGC | -0.0181 E-score |
| CAGAGCCC | -0.094 E-score |
| ATATTCAC | 0.138 E-score |
| CCCCGCCC | 0.244 E-score |
| CCCACTGC | -0.0736 E-score |
| CCCAACCG | -0.132 E-score |
| CCAGTTTC | -0.0118 E-score |
| TAGCGCGA | -0.0508 E-score |
| GGAGTGAA | -0.0345 E-score |
| TCCTGGAA | -0.188 E-score |
| ACCTCTCA | 0.0493 E-score |
| CGACTTAA | -0.186 E-score |
| CACCGACA | 0.172 E-score |
| TGAGATAA | 0.0863 E-score |
| AATCGTAA | -0.0056 E-score |
| GGGTCAGA | -0.0498 E-score |
| CCAACTAC | 0.0733 E-score |
| AGATACAT | 0.329 E-score |
| CCCACCTC | -0.0533 E-score |

| Sequence | binding signal |
| --- | --- |
| ATTGGTTA | -0.0152 E-score |
| CCCCACAC | 0.0515 E-score |
| ATCCGATC | 0.43 E-score |
| CATCTTAG | 0.0299 E-score |
| CACCCGCC | 0.215 E-score |
| CCGGCTTC | 0.0646 E-score |
| ACCCGCGA | 0.116 E-score |
| ATACGTGC | 0.358 E-score |
| CCGAATCC | 0.163 E-score |
| AGCACGGG | -0.251 E-score |
| GGCGTTCA | -0.0936 E-score |
| CCGTCTGA | 0.11 E-score |
| CGCCATGC | -0.135 E-score |
| AAAATGCT | -0.17 E-score |
| AGTGAACA | -0.12 E-score |
| AGCATAAG | -0.172 E-score |
| AGAGGTCA | -0.241 E-score |
| AACACAGC | -0.123 E-score |
| GATGTTAC | -0.178 E-score |
| ATCGAACG | -0.0566 E-score |
| ACATAGCG | -0.135 E-score |

| Sequence | binding signal |
| --- | --- |
| TAACGACA | -0.157 E-score |
| CACCAACC | -0.0297 E-score |
| GACGAGGC | -0.066 E-score |
| CGTGTATC | 0.404 E-score |
| CGATCCTC | 0.333 E-score |
| CACCTATA | 0.0576 E-score |
| CCCCATAA | 0.0718 E-score |
| AACTCGTG | -0.168 E-score |
| AGTATGAT | 0.282 E-score |
| AGTGTCAT | 0.272 E-score |
| TATAGGAA | 0.0688 E-score |
| AGAAGACT | -0.195 E-score |
| AAGAGTCC | -0.375 E-score |
| GGTTCCAC | -0.244 E-score |
| GATATAGA | 0.318 E-score |
| CTTCTGTC | -0.0769 E-score |
| TCATGCAA | 0.0584 E-score |
| AGGCTTCG | -0.132 E-score |
| ATTACAAG | -0.117 E-score |
